Measurements as given in PubChem BioAssay AID686978 (National Center for Advancing Translational Sciences (NCATS), 2013).
Hit rate of the full screen: of about 420,000 compounds, about 64,000 (15%) were called active. Inconclusive means that the source gave no clear call. Such entries were picked first, then a sample of the others. Calls come from the whole dose curve; as a rule, active = well fitted inhibition curve with a large enough effect; inconclusive = small, poorly fitted or top-dose-only effect; inactive = flat fitted curve, though single readings scatter. Potencies of inconclusive entries are left out as doubtful fits.
% is set by controls: 0 for no effect and ±100 for the full control effect; potency is the fitted concentration of half-maximal effect; tags give direction and shape of the fitted curve.

Assay: qHTS for Inhibitors of human tyrosyl-DNA phosphodiesterase 1 (TDP1): qHTS in cells in absence of CPT; note: nearly all actives have a fitted effect of over 55% in size
Conditions: DT40 Tdp1-/- hTDP1 cells, no CPT, ATP luminescence, 48 h; activity change, negative = growth inhibition: at 46.2 µM (top of the series) unless noted
How it was run: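 No-CPT arm: Tdp1-/-;hTDP1 DT40 cells (400/well) plus compounds, incubated ≥48 hr at 37 °C. Readout CellTiter-Glo luminescence.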
In the case of `O=C(/C=C/c1ccco1)N/C(=C\c1ccco1)C(=O)NCCc1nc2ccccc2[nH]1`, the Potency is reported as inconclusive [inhibitor, partial curve]. In the case of `CC(Cc1c[nH]c2ccccc12)NC(N)=O` (stereo unspecified), the Potency is reported as “inactive”. For `Cn1cc(C(=O)N/N=C/C(Br)=C/c2ccccc2)ccc1=O`, the Potency was active: 2.31 µM. With `Cc1cc(C)cc(N(CCC#N)C(=O)COC(=O)C2CCN(c3ccc(C(F)(F)F)cn3)CC2)c1` the Potency was inconclusive [inhibitor, single point]. In the case of `Cc1cc(C(=O)Nc2ccccc2C(=O)O)ccc1NC(=O)COc1cccc(C)c1C`, the Potency is reported as “inactive”. In the case of `O=C(Cc1ccc(S(=O)(=O)N2CCOCC2)s1)Nc1ccc2c(c1)CCC2`, the activity change, negative = growth inhibition is reported as inconclusive: -36.7% [inhibitor]. With `CN(c1ccc(/C=C/c2ccccc2)cc1)P1(=O)NCCCO1` (stereo unspecified) the Potency was “inactive”. For `O=C(NCCCN1CCCCC1)c1ccc2c(c1)NC(=O)c1ccccc1S2`, the Potency was inconclusive [inhibitor, single point]. In the case of `O=C(NCCCn1ccnc1)c1cc2nc(-c3ccc(Br)cc3)cc(C(F)(F)F)n2n1`, the Potency is reported as inconclusive [inhibitor, single point]. In the case of `CCOC(=O)N1CCN(CCC(=O)Nc2ccccc2)CC1`, the Potency is reported as “inactive”. With `COc1ccc(Cn2c(C)c(C)c(C#N)c2NC(=O)Nc2ccccc2)cc1` the Potency was inconclusive [inhibitor, single point]. In the case of `COc1cccc(CNC(=O)Cn2c(=O)n(CCC(=O)N3CCCCC3)c(=O)c3sccc32)c1`, the Potency is reported as “inactive”. With `COc1cccc(NC(=O)CN(C)C(=O)c2cccc(S(=O)(=O)N3c4ccccc4CC3C)c2)c1` (stereo unspecified) the Potency was inconclusive [inhibitor, single point]. For `O=C(NC1CC(=O)N(c2ccccc2)C1)C(c1ccccc1)c1ccccc1` (stereo unspecified), the Potency was inconclusive [inhibitor, single point]. In the case of `CS(=O)(=O)c1ccc(-c2cc(Br)sc2-c2ccc(F)cc2)cc1`, the Potency is reported as inconclusive [inhibitor, single point]. In the case of `Cc1ccc(S(=O)(=O)N2CCN(C(=O)[C@H](Cc3ccccc3)NC(=O)c3ccco3)CC2)cc1`, the Potency is reported as inconclusive [inhibitor, single point]. With `O=S(=O)(c1ccc(N2CCOCC2)c(Cl)c1)N1CCOCC1` the Potency was “inactive”. In the case of `C=CCn1c(NC(=O)c2ccc(Br)o2)c(C(=O)OCC)sc1=S`, the Potency is reported as inconclusive [inhibitor, single point]. For `O=C1CN(/N=C/c2ccc([N+](=O)[O-])o2)C(=O)N1`, the Potency was active: 16.4 µM. For `CCOC(=O)c1nn(-c2cc(C(=O)OC)cc(C(=O)OC)c2)cc1O`, the Potency was “inactive”. With `CCN(CC)c1ccc(-c2nnc(SCC(=O)N(CCOC)c3c(N)n(CC(C)C)c(=O)[nH]c3=O)o2)cc1` the Potency was inconclusive [inhibitor, single point]. With `Cc1cc2nnc(SCC(=O)Nc3cccc(S(=O)(=O)N4CCOCC4)c3)n2c2ccccc12` the activity change, negative = growth inhibition was inconclusive: -33% [inhibitor]. For `CC(=O)c1c(C)[nH]c(C(=O)OCc2ccccc2F)c1C`, the Potency was active: 20.6 µM. With `O=C(CSc1nc2nccnc2c(=O)n1CCc1c[nH]c2ccccc12)Nc1ccccc1` the Potency was active: 14.6 µM. With `CC(O)(c1ccccc1)c1nc(-c2ccc(F)c(Cl)c2)cs1` (stereo unspecified) the Potency was inconclusive [inhibitor, partial curve, poor fit]. For `CC1CN(S(=O)(=O)c2cccc(C(=O)Nc3ccccc3N3CCCC3)c2)CC(C)O1` (stereo unspecified), the Potency was active: 11.6 µM. In the case of `COc1ccc(N=Cc2sc(O)c3ccccc23)cc1`, the Potency is reported as inconclusive [inhibitor, single point]. With `COc1ccc(-c2ccc(C(=O)NCc3ccccc3)c3occc23)c(C)c1` the Potency was inconclusive [inhibitor, single point]. In the case of `COC(=O)/C(=C(/F)Sc1cc(C)c(O)c(C)c1)C(F)(F)F`, the Potency is reported as active: 7.31 µM. In the case of `CCCCOc1ccccc1C(=O)NCCCCCC(=O)O`, the Potency is reported as “inactive”. In the case of `CC(C)Cn1nc(NC(=O)C2CCCO2)c2cc3ccccc3nc21` (stereo unspecified), the Potency is reported as inconclusive [inhibitor, single point]. With `Cc1ccc(C(=O)N2CCCCC2)cc1NC(=O)c1nsc2ccccc12` the Potency was inconclusive [inhibitor, single point]. In the case of `Cc1ccc(CNC(=O)c2oc3ccc(S(=O)(=O)N4CCOCC4)cc3c2C)cc1`, the Potency is reported as inconclusive [inhibitor, single point]. For `Cc1c(CCNC(=O)c2ccc(Br)o2)sc2nc(-c3ccc(Cl)cc3)nn12`, the Potency was active: 23.1 µM. With `Cn1nccc1C(=O)NC1CCCc2c1cnn2-c1ccc(C(C)(C)C)cc1` (stereo unspecified) the Potency was active: 2.91 µM. In the case of `COc1cc(OC)cc(-c2c(Sc3ccccc3)c3cc(-c4ccc(OC)nc4)ccc3n2C)c1`, the activity change, negative = growth inhibition is reported as inconclusive: -37.3% [inhibitor]. For `O=C(COc1ccc(S(=O)(=O)NC2CCCCC2)cc1)NCCC1=CCCCC1`, the Potency was inconclusive [inhibitor, partial curve]. For `CS(=O)(=O)c1ccc(C(=O)OCC(=O)NC(=O)C2CCCCC2)cc1[N+](=O)[O-]`, the Potency was inconclusive [inhibitor, full curve, poor fit]. With `CCOC(=O)Cc1csc(NC(=O)c2ccc3c(c2)OCO3)n1` the Potency was inconclusive [inhibitor, partial curve]. In the case of `Fc1cccc(-c2nn[nH]n2)c1`, the Potency is reported as “inactive”. With `COc1ccc(N2CCN(c3cnc4ccccc4n3)CC2)cc1` the Potency was inconclusive [inhibitor, single point]. For `COc1ccc(C(=O)N2CCN(S(=O)(=O)c3ccc4c(c3)OCCO4)CC2)cc1`, the Potency was inconclusive [inhibitor, single point]. For `O=C(NCC[C@H]1CC[C@H](NS(=O)(=O)c2ccccc2F)[C@@H](CO)O1)c1ccc(F)cc1`, the Potency was “inactive”. With `CCC1CCCCN1CCCNC(=O)C1CCCN(c2nn3c(=O)cc(C)nc3s2)C1` (stereo unspecified) the Potency was “inactive”. For `COc1ccccc1C1CCN(c2ccc(CO)cc2[N+](=O)[O-])CC1`, the Potency was active: 16.4 µM. With `COc1ccc(NC(=O)c2cc(-c3ccc(F)cc3C)n[nH]2)cc1OC` the Potency was inconclusive [inhibitor, single point]. For `O=[N+]([O-])c1cc(S(=O)(=O)NC2=NCCCCC2)ccc1NCC1CCCCC1`, the Potency was inconclusive [inhibitor, single point]. With `S=C(N/N=C/c1ccc(Br)cc1)N1CCCCC1` the Potency was inconclusive [inhibitor, single point]. For `CC(C)c1ccc(NC(=O)C2CCN(C(=O)[C@@H]3Cc4ccccc4CN3)CC2)cc1`, the Potency was inconclusive [inhibitor, single point]. In the case of `Cc1ccc(N/C(C(Cl)=C(Cl)Cl)=C(/Cl)[N+](=O)[O-])c(C)c1`, the Potency is reported as active: 16.4 µM. For `COc1ccc(-n2c(=O)cc(N3CC(C)OC(C)C3)[nH]c2=O)cc1` (stereo unspecified), the Potency was “inactive”. With `N[C@H](C(=O)O)c1ccc(C(=O)O)cc1` the Potency was “inactive”. For `C=CCn1c(CNC(=O)c2ccccc2F)nnc1SCC(=O)N1CCOCC1`, the Potency was “inactive”. In the case of `O=C(CSc1nccn1Cc1ccc(F)cc1)NC1CCCCC1`, the activity change, negative = growth inhibition is reported as inconclusive: -33.1% [inhibitor]. For `O=C(/C=C/c1ccccc1)N/C(=C/c1ccccc1)C(=O)Nc1ccc(C(=O)O)cc1`, the Potency was inconclusive [inhibitor, single point]. With `Cc1cccc(N2CC(O)(c3cccs3)[N+]3=C2CCCCC3)c1` (stereo unspecified) the Potency was inconclusive [inhibitor, single point]. In the case of `CCCCn1c(N)c(N(CC(C)C)C(=O)c2cc(-c3ccc(OC)cc3)nc3ccccc23)c(=O)[nH]c1=O`, the Potency is reported as inconclusive [inhibitor, single point]. With `CCc1cc2c(=O)c(-c3cnn(-c4ccccc4)c3)c(C)oc2cc1OCC(=O)Nc1cccc(C)c1` the Potency was active: 5.17 µM. With `OC1(CN2CCOCC2)C2CN3CCN(C2)CC1(c1ccccc1)C3` (stereo unspecified) the Potency was inconclusive [inhibitor, single point]. For `Cc1c(C)n(CC(O)CN(CCO)CCO)c2ccccc12` (stereo unspecified), the Potency was “inactive”. For `COc1ccc(CNC2CCCc3ccccc32)c(OC)c1` (stereo unspecified), the Potency was inconclusive [inhibitor, single point]. In the case of `O=C(NCC(c1cccs1)N1CCOCC1)c1ccccc1NS(=O)(=O)c1cc([N+](=O)[O-])ccc1Cl` (stereo unspecified), the Potency is reported as “inactive”. For `O=C(CN1C(=O)NC2(CCCCC2)C1=O)Nc1cccc(Cl)c1Cl`, the Potency was inconclusive [inhibitor, partial curve]. For `CC1CCN(C(=O)Cn2nnc(-c3ccc([N+](=O)[O-])cc3)n2)CC1`, the Potency was “inactive”. For `CCOC(=O)c1sc(=S)n(C)c1NC(=O)c1ccccc1Cl`, the Potency was inconclusive [inhibitor, single point]. For `Cc1cc(C)cc(-n2c(C)c3c(C)nnc(C)c3c2C)c1`, the Potency was active: 7.31 µM. With `COc1cc(CNCc2ccncc2)cc(Br)c1OCc1ccccc1F` the Potency was inconclusive [inhibitor, partial curve]. In the case of `O=C(c1ccncc1)N(Cc1cc2ccccc2[nH]c1=O)C1CCCCC1`, the Potency is reported as inconclusive [inhibitor, partial curve]. With `COc1cccc(NC(=O)[C@@H](NC(=O)N2CCn3c2nc2ccccc23)C(C)C)c1` the Potency was active: 13 µM. For `CC(=O)CSc1ccc(-c2nc3cc(C)c(C)cc3[nH]2)cn1`, the Potency was inconclusive [inhibitor, single point]. For `N#CC1=C(N)Oc2cc(N)ccc2C1C1CC=CCC1` (stereo unspecified), the Potency was inconclusive [inhibitor, single point].
